{
  "source": "the RNAGym collection of RNA variant scans (doi:10.1093/nar/gkz1192)",
  "parents": {"B1": {"name": "CPEB3 Ribozyme (parent)", "chain": "UAACAGGGGGCCACAGCAGAAGCGUUCACGUCGCAGCCCCUGUCAGAUUCUGGUGAAUCUGCGAAUUCUGCUGUAUAUCUC"}},
  "note": "Read counts are not given, so values of variants with three or more changes are uncertain.",
  "data": [
    {"variants_of": "B1", "experiment": "self-cleavage, relative activity (ratio to wild type); higher = more cleavage; in vitro, sequencing", "how_it_was_run": "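For each CPEB3 ribozyme variant, relative activity is its cleaved/total read fraction divided by the unmutated ribozyme's. Barcoded error-prone PCR libraries were transcribed by T7 RNA polymerase (5 hours, 37°C) and held in DNase I for 15 min before an EDTA stop, with cleavage occurring throughout. Template-switching reverse transcription and Illumina sequencing were used to read the RNAs. A 5-read minimum applied, and results are the mean of three batches.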", "values": [
      {"variant": "UAACAGGGGGCCACAGCAGAGGCGUUCACGUCGCAGCCCCUGUCAGAUUCUGGUGUAUCUGCGAGUUCUGCUGUAUGUCUC", "note": "[A21G A56U A65G A77G]", "self-cleavage": 0.15},
      {"variant": "UAACAGGGGGCCACAGCAGAGGCGUUCACGUCGCAGCCCCUGUCAGGUUCUGGUGAAUCUGCGAGUUCUGCUGUAUAUCUC", "note": "[A21G A47G A65G]", "self-cleavage": 0.2},
      {"variant": "UAACAGGGGGCCACAGCAGAGGCGUUCACGUCGCAGCCCCUGUCAGGUUCUGGAGAAUCUGCGAAUUCUGCUGUAUAUCUC", "note": "[A21G A47G U54A]", "self-cleavage": 0.7},
      {"variant": "UAACAGGGGGCCACAGCAGAGGCGUUCACGUCGCAGCCCCUGUCAGGUUCUGGCGAAUCUGCGAAUUCUGCUGUAUAUCUC", "note": "[A21G A47G U54C]", "self-cleavage": 0.62},
      {"variant": "UAACAGGGGGCCACAGCAGAGGCGUUCACGUCGCAGCCCCUGUCGGAUUCUGGUGAAUCCGCGAAUCCUGCCGUAUAUCUC", "note": "[A21G A45G U60C U67C U72C]", "self-cleavage": 0.11},
      {"variant": "UAACAGGGGGCCACAGCAGAGGCGUUCACGUCGCAGCCCCUGUCGGAUUCUGGUGAAUCUGCGAGCUCUGCUGUAUAUCUC", "note": "[A21G A45G A65G U66C]", "self-cleavage": 0.2},
      {"variant": "UAACAGGGGGCCACAGCAGAGGCGUUCGCGUCGCAGCCCCUGUCAGACUCUGGUGAAUCAGCGAAUUCUGCUGUAUAUCAC", "note": "[A21G A28G U48C U60A U80A]", "self-cleavage": 0.06},
      {"variant": "UAACAGGGGGCCACAGCAGAGGCGUUCACGUCGCGGCCCCUGUCAGAUUCUGGUGAGUCUGCGAAUUCUGCCGUAUAUCUC", "note": "[A21G A35G A57G U72C]", "self-cleavage": 1.17},
      {"variant": "UAACAGGGGGCCACAGCAGAGGCGUUCUCGUCGCAGCCCCUGUCGGAUCCUGGUGAAUCUGCGAAUUCUGCCGUAUAUCUC", "note": "[A21G A28U A45G U49C U72C]", "self-cleavage": 0.07},
      {"variant": "UAACAGGGGGCCACAGCAGAGGCGUUCACGUCGCAGCCCCUGUCAGAUUCUGGUGAAUCUGCGAGUUCUGCAGUAUAUCAC", "note": "[A21G A65G U72A U80A]", "self-cleavage": 0.07},
      {"variant": "UAACAGGGGGCCACAGCAGAGGCGUUCACGUCGCAGCCCCUGUCAGGUUCUGGUGAAUCCGCGAAUUCUGCUGUAUAUCUC", "note": "[A21G A47G U60C]", "self-cleavage": 0.37},
      {"variant": "UAACAGGGGGCCACAGCAGAGGCGUUCACGUCGCGGCCACUGUCAGAUACUGGUGAAUCUGCGAAUUCUGCUGUACCUCUC", "note": "[A21G A35G C39A U49A U76C A77C]", "self-cleavage": 0.04},
      {"variant": "UAACAGGGGGCCACAGCAGAGGCGUUCAAGUCGCAGCCCCUGUCGGGUUCUGGUGAGUCUGCGAGUUCUGCUGUAUAUCUC", "note": "[A21G C29A A45G A47G A57G A65G]", "self-cleavage": 0.02},
      {"variant": "UAACAGGGGGCCACAGCAGAGGCGUUCACGUCGCAGCACCAGUCAGAUACUGGUGAAUCUGCGAAUUCUGCUGUAUAUCUC", "note": "[A21G C38A U41A U49A]", "self-cleavage": 0.07},
      {"variant": "UAACAGGGGGCCACAGCAGAGGCGUUCACGUCGCAGCCCCUGUCAGAUUCUGGUGAAUCUGCGAUUUCCGCUGUAUAUCUC", "note": "[A21G A65U U69C]", "self-cleavage": 0.29},
      {"variant": "UAACAGGGGGCCACAGCAGAGGCGUUCUCGUCGCGGCCCCUGUCAGAUUCUGGUGAAUCUGCGAACUCUGCUGUAUAUCUC", "note": "[A21G A28U A35G U66C]", "self-cleavage": 1.19},
      {"variant": "UAACAGGGGGCCACAGCAGAGGCGUUCACGUCGCAGCCCCUGUCGGAUUCUGGUGAAUCUGCGAAUUCUGCUGUAUAUCCC", "note": "[A21G A45G U80C]", "self-cleavage": 0.3},
      {"variant": "UAACAGGGGGCCACAGCAGAGGCGUUCACGUCGCAGCCCCUGUCAGGCUCUGGUGAGUCUGCGAAUUCCGCUGUAUAUCUC", "note": "[A21G A47G U48C A57G U69C]", "self-cleavage": 0},
      {"variant": "UAACAGGGGGCCACAGCAGAGGCGUUCACGUCGCAGCCCCUGUCGGAUGCUGGUGGAUCUGCGAAUUCAGCUGUGUAUCUC", "note": "[A21G A45G U49G A56G U69A A75G]", "self-cleavage": 0.22},
      {"variant": "UAACAGGGGGCCACAGCAGAGGCGUUCACGUCGCAGCCCCUGUCUGAUCCUGGUGAAUCUGCGAACUCUGCCGUACAUCUC", "note": "[A21G A45U U49C U66C U72C U76C]", "self-cleavage": 0.04},
      {"variant": "UAACAGGGGGCCACAGCAGAGGCGUUCACGUCGCAGCCCCUGUCAGGUUCUGGCGAACCUGCGAAUUCUGCUGUAUAUCUC", "note": "[A21G A47G U54C U58C]", "self-cleavage": 0.76},
      {"variant": "UAACAGGGGGCCACAGCAGAGGCGUUCACGUCGCGGCCCCUGCCAGAUUCUGGUGGAUCUGCGAAUUCUGCUGUAUGUCUC", "note": "[A21G A35G U43C A56G A77G]", "self-cleavage": 0.73},
      {"variant": "UAACAGGGGGCCACAGCAGAGGCGUUCUCGUCGCAGCCACUGUCACAUUCUGGUGAGUCUGCGAAUUCUGCUGUAUAUCUC", "note": "[A21G A28U C39A G46C A57G]", "self-cleavage": 0.07},
      {"variant": "UAACAGGGGGCCACAGCAGAGGCGUUCGCGUCGCAGCCCCUGUCAGAUUCCGGUGAAUCUGCGAAUUCUGCUGUAUAUCUC", "note": "[A21G A28G U51C]", "self-cleavage": 0.19},
      {"variant": "UAACAGGGGGCCACAGCAGAGGCGUUCACGUCGCGGCCCCUGUCAGAUUCUGGCGAACCUGCGAAUUCUGCCGUAUAUCUC", "note": "[A21G A35G U54C U58C U72C]", "self-cleavage": 0.31},
      {"variant": "UAACAGGGGGCCACAGCAGAGGCGUUCACGUCGCAGCCCCUGUCUGAUUCUGGUGAAUCAGAGAAUUCUGCUGUAUAUCUC", "note": "[A21G A45U U60A C62A]", "self-cleavage": 0.12},
      {"variant": "UAACAGGGGGCCACAGCAGAGGCGUUCGCGUCGCAGCCCCUGACAGAUUCUGGUGAGUCUGCGAAUUCUGCUGUAUAUCUC", "note": "[A21G A28G U43A A57G]", "self-cleavage": 0.31},
      {"variant": "UAACAGGGGGCCACAGCAGAGGCGUUCACGUCGCAGCCCCUGUCGGAUUCUGGUGAAUCUGCGAAUUCUGCUGCAUAUCUC", "note": "[A21G A45G U74C]", "self-cleavage": 0.8},
      {"variant": "UAACAGGGGGCCACAGCAGAGGCGUUCACGUCGCAGCCCCUGUCUGAUUCUGGUGAAUCUGCGAACUCUGCUGUAUAUCCC", "note": "[A21G A45U U66C U80C]", "self-cleavage": 0.21},
      {"variant": "UAACAGGGGGCCACAGCAGAGGCGUUCACGUCGCGGCCCCUGUCAGAUUCUGGUGAAUCUGCGAAUUCGGCUGUACAUCUC", "note": "[A21G A35G U69G U76C]", "self-cleavage": 1.1},
      {"variant": "UAACAGGGGGCCACAGCAGAGGCGUUCAUGCCGCAGCCCCUGACAGAUUCUGGUGAAUCAGCGAAUUCUGCUGUAUACCUC", "note": "[A21G C29U U31C U43A U60A U78C]", "self-cleavage": 0.05},
      {"variant": "UAACAGGGGGCCACAGCAGAGGCGUUCACGUCGCGGCCCCUGUCAGAUUCUGGCGAAUCUGCCAAUUCUGCUGUAUAUCUC", "note": "[A21G A35G U54C G63C]", "self-cleavage": 1.19},
      {"variant": "UAACAGGGGGCCACAGCAGAGGAGUUCUCGCCGCAGCCCCUGUCAGAUUUUGGUGAAUCCGCGAAUUCUGCUGUAUGUCUC", "note": "[A21G C23A A28U U31C C50U U60C A77G]", "self-cleavage": 0.11},
      {"variant": "UAACAGGGGGCCACAGCAGAGGUGUUCACGUCGCAGCCCCUGUCAGAUUCUGGUGAAUCUGAGAAUUCUGCUGUAUAUCUC", "note": "[A21G C23U C62A]", "self-cleavage": 0.26}
    ]}
  ]
}
